Test results published in the CheMixHub viscosity set.
± gives the uncertainty stated by the source. A number of entries come with more than one value. They are shown here; other results are not. The source may hold further records. Values that stand side by side are repeats across runs, samples, wells, individuals or studies. What stands in brackets tells the records apart. Letters count within one entry.

Details: 101 kPa

Which viscosity (308.15 K) does the source give for `OCCCCO` here?
The viscosity was 41.6 ± 2 mPa·s [study A] and 44.3 ± 0.9 mPa·s [study B] and 46 ± 0.26 mPa·s [study C] and 45.24 ± 0.29 mPa·s [study D].

What about the viscosity (318.15 K) of the same molecule?
Its viscosity is 30.5 ± 1.5 mPa·s [study A] and 29.4 ± 0.6 mPa·s [study B] and 29.7 ± 0.17 mPa·s [study C] and 30.12 ± 0.2 mPa·s [study D].

With `Cc1cc(C)cc(C)c1` as the molecule, how does the viscosity (308.15 K) read?
The viscosity was 0.575 ± 0.012 mPa·s [study A] and 0.5614 ± 0.0047 mPa·s [study B] and 0.5734 ± 0.013 mPa·s [study C] and 0.548 ± 0.15 mPa·s [study D].

And the viscosity (313.15 K)?
The viscosity was 0.555 ± 0.012 mPa·s [study A] and 0.545 ± 0.011 mPa·s [study B] and 0.4376 ± 0.13 mPa·s [study C] and 0.555 ± 0.015 mPa·s [study D].
